Measurements from the antibiotic and cytotoxicity screens of Wong et al. (2023).
This is one part of the list.

Columns and labels:
HSkMC = human skeletal muscle cells; assay: cytotoxicity call (relative viability < 0.9); settings: 10 µM
HepG2 = assay: cytotoxicity call (relative viability < 0.9); settings: 10 µM
S. aureus RN4220 = assay: growth inhibition call (relative growth <= 0.2); settings: 50 µM

Compound	cytotoxicity call (HSkMC)	cytotoxicity call (HepG2)	growth inhibition call (S. aureus RN4220)
C[C@@H]1CN([C@H](C)CO)C(=O)c2cccc(NS(=O)(=O)c3ccc(F)cc3)c2O[C@@H]1CN(C)S(C)(=O)=O	inactive	inactive	inactive
C[C@H](CO)N1C[C@H](C)[C@H](CN(C)C(=O)NC2CCCCC2)Oc2c(NC(=O)Nc3ccc(C(F)(F)F)cc3)cccc2C1=O	inactive	active	inactive
C[C@@H]1CN([C@H](C)CO)C(=O)c2cc(NC(=O)Nc3ccc(C(F)(F)F)cc3)ccc2O[C@@H](C)CCCCO[C@@H]1CN(C)Cc1ccncc1	active	active	inactive
C[C@@H]1CCCCO[C@H](CN(C)C(=O)CCC(F)(F)F)[C@H](C)CN([C@H](C)CO)C(=O)c2cc(NS(=O)(=O)c3ccc(F)cc3)ccc2O1	inactive	inactive	inactive
O=C(C[C@@H]1C[C@@H]2c3cc(NS(=O)(=O)c4ccc(F)cc4)ccc3O[C@@H]2[C@@H](CO)O1)NCCc1ccccc1	inactive	inactive	inactive
C[C@H](CO)N1C[C@H](C)[C@@H](CN(C)C(=O)c2ccncc2)Oc2ncc(C#CC3CCCCC3)cc2C1=O	inactive	inactive	inactive
COc1ccc(C#Cc2ccc3c(c2)O[C@H](CN(C)S(=O)(=O)c2ccccc2F)[C@H](C)CN([C@H](C)CO)S3(=O)=O)cc1	inactive	inactive	inactive
C[C@H]1CN([C@@H](C)CO)C(=O)Cc2cc(NC(=O)Nc3cccc4ccccc34)ccc2O[C@H]1CN(C)Cc1ccc(Cl)c(Cl)c1	inactive	inactive	inactive
C[C@@H]1CCCCO[C@@H](CN(C)Cc2ccncc2)[C@H](C)CN([C@@H](C)CO)C(=O)c2cc(NC(=O)Nc3ccccc3)ccc2O1	inactive	inactive	inactive
